The record followed here is paper PMC4300402.

Chains of the proteins cited; added tags and fusions are not shown. Lines headed by an entry give the natural chain unless they say otherwise; changes in a name come on top. A line that says so, or that is headed by a name, gives the form on record, which may keep a tag or linker. Residues count along the entry.
UniProt P19491, residues 22-883: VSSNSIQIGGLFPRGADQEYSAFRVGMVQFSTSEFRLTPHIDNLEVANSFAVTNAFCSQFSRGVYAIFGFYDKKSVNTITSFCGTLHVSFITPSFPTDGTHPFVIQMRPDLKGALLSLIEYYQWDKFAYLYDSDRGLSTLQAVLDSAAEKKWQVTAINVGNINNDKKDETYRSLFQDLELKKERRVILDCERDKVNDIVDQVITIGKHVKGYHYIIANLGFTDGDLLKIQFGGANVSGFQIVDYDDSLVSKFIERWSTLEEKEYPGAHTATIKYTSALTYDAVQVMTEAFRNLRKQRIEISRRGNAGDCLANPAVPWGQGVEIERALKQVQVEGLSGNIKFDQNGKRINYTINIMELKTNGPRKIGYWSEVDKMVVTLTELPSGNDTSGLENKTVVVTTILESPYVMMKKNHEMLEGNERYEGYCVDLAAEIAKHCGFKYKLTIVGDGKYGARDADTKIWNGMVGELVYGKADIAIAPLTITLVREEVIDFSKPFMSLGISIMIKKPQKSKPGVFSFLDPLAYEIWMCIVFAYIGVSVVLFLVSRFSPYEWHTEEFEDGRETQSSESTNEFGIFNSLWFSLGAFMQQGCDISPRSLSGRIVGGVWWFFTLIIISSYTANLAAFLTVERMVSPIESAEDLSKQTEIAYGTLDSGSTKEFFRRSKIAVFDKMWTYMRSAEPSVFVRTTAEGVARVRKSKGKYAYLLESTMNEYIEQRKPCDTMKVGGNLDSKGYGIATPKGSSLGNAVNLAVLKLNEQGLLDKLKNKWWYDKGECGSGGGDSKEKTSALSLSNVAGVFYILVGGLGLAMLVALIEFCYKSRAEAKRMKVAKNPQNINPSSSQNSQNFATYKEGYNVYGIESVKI
UniProt Q8CFN2: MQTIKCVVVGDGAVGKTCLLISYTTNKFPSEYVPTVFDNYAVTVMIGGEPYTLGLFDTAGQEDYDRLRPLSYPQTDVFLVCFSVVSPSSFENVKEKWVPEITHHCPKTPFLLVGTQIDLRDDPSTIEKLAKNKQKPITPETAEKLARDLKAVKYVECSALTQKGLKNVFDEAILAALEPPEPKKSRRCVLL
UniProt P60953: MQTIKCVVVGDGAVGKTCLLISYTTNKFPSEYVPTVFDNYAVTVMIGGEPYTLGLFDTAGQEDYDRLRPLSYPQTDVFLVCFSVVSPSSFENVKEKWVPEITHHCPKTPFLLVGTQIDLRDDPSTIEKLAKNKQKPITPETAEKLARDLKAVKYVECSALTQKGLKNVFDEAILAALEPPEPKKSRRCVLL
myc-tagged Cdc42(N17) (P60953, form named): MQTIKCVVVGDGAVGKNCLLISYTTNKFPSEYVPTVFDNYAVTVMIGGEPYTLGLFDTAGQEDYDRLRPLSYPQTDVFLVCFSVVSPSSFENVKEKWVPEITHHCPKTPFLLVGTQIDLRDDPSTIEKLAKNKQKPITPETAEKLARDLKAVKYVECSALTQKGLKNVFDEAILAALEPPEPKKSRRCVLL
myc-tagged Cdc42(V12) (P60953, form named): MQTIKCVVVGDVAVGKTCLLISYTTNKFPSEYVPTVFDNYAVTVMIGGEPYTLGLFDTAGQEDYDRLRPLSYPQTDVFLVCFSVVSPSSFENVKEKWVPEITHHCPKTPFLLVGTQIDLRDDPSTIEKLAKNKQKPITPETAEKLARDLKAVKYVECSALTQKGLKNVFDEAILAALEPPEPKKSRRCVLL

Results are given in words; binding and its absence hold for the method and conditions named. For some of these results: Binding seen in cells or lysates may run through a third protein. Some entries that bind do so weakly or less than the wild type.

Test [1] has as its target PICK1 (endogenous, cortical neurons) (rat (endogenous in cortical neurons)) (UniProt Q9EP80). As to the kind of experiment: co-IP; lysates of cultured cortical neurons (0.5% TX-100 diluted to 0.25%, 150 mM NaCl, 20 mM Tris pH 7.5) immunoprecipitated with anti-PICK1 or control IgG; western blotting. (Immunoblotting shows a protein as a band on a membrane.)
For test [2], the target named is GluA2 (endogenous, cortical neurons) (rat (endogenous in cortical neurons)) (UniProt P19491). As to the kind of experiment: co-IP; lysates of dissociated cortical neurons immunoprecipitated with anti-GluA2 or non-immune mouse IgG; western blotting with anti-GluA2, anti-PICK1 and anti-Cdc42.
The next test concerns the target GST–PICK1 (105-416) (UniProt Q9EP80). The test is described as follows: pull-down; GST–PICK1 wild type or truncation mutants incubated with purified his6-tagged flagCdc42 or mycRac1; western blotting with anti-flag or anti-myc; both purified.
Test [3] concerns the target GST–PICK1 (wild-type) (UniProt Q9EP80). Described as above.
Another test deals with GST–PICK1 (1-379) (UniProt Q9EP80). The description is as above.
Test [4] concerns the target GST–PICK1 (wild-type) (UniProt Q9EP80). As to the kind of experiment: pull-down; GST fusion proteins (GST–PICK1, GST–PAK–CRIB) incubated with lysates of COS7 cells expressing epitope-tagged GTPases; bound proteins detected by western blotting with anti-myc; only the target purified.

On to “Cdc42 (endogenous, cortical neurons) (from UniProt Q8CFN2 1-191)”, for which the binding entry in test [1] is on record as “binds”.
On to “PICK1 (endogenous, cortical neurons) (from UniProt Q9EP80 1-416)”, for which the binding result in test [2] is on record as “binds”.
Regarding “his6-tagged flagCdc42 (from UniProt P60953 1-191)”, the values for the binding entry with GST–PICK1 (105-416), with GST–PICK1 (wild-type) [3] and with GST–PICK1 (1-379) were “no binding”, “binds” and “binds”, respectively.
Take “myc-tagged Cdc42(N17) (from UniProt P60953 1-191)”: the binding result with GST–PICK1 (wild-type) [4] is given as “binds”.
Regarding “myc-tagged Cdc42(V12) (from UniProt P60953 1-191)”, the binding result with GST–PICK1 (wild-type) [4] was “binds”.
